Measured values as given in PubChem BioAssay AID1347071 (National Center for Advancing Translational Sciences (NCATS), 2019).
The whole screen tested about 410,000 compounds, of which about 260 (0.063%) were called active. This list was built around the results that the source calls inconclusive (neither active nor inactive); the mix of calls is not that of the screen. Calls come from the whole dose curve; as a rule, active = well fitted activation curve with a large enough effect; inconclusive = small, poorly fitted or top-dose-only effect; inactive = no such curve, though single readings can be large or run the other way. Potencies of inconclusive entries are left out as doubtful fits.

Experiment: qHTS for compounds that reverse cellular toxicity of Amyloid beta (A-beta) peptide in yeast: Primary Screen; note: nearly all actives have a fitted effect of over 55% in size
Details: yeast expressing A-beta42, growth rescue, OD600, 48 h; growth rescue: at 46.1 µM (top of the series), 0% DMSO, 100% iron-clioquinol control
Procedure, shortened: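 Growth rescue measured by 600 nm absorbance after 48 h yeast culture at 30 C with compound. Values normalized between DMSO and an equimolar ferric chloride plus clioquinol control.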
Potency is the fitted concentration of half-maximal effect; tags give direction and shape of the fitted curve.

SMILES | Potency
CC(=O)Nc1ccc(SCC(=O)Nc2cc(C)on2)cc1 | inactive
Cc1ccc(-c2nn(-c3ccccc3)cc2CO)cc1 | inconclusive [activator, partial curve]
S=C(Nc1ccc2c(c1)OCO2)Nc1ccccc1Cl | inconclusive [activator, single point]
CSc1cccc(NC(=S)N2CCC(c3ccccc3)C2)c1 (stereo unspecified) | inconclusive [activator, single point]
O=C(O)CC(CCc1ccccc1)OC1OC(CO)C(O)C(O)C1O (stereo unspecified) | inconclusive [activator, single point]
CCc1ccccc1NC(=O)CCCN1C(=O)CCn2nc(-c3cn(C)c4ccccc34)cc21 | inactive
Cc1cc(C)cc(OCc2cc(=O)n3c(-c4ccccc4)csc3n2)c1 | inactive
O=C(c1cnn(-c2ccc(F)cc2)c1-n1cccc1)N1CCN(c2ccc(Cl)cc2)CC1 | inactive
CC(C)Cc1ccc(CN2C(C(C)C)C(=O)N(Cc3cn(CCC4OCCO4)nn3)CCS2(=O)=O)cc1 (stereo unspecified) | inactive
COc1ccc(Nc2cc(C)nc3ncnn23)cc1 | inactive
O=C(NCCC1=CCCCC1)C1CCN(C(=O)N2CCOc3ccc(Cl)cc32)CC1 | inconclusive [activator, single point]
CCOc1ccccc1CNS(=O)(=O)c1ccc2[nH]c(=O)sc2c1 | inconclusive [activator, partial curve, poor fit]
Cc1cccc(NC(=S)NCc2ccco2)n1 | active: 12.6 µM
COc1ccccc1N/C(=N/S(=O)(=O)c1ccc(Cl)cc1)c1ccccc1 | inconclusive [activator, partial curve, poor fit]
CCOc1ccc(N(CC)C(=O)Cc2c(C(=O)O)n(C)c3ccccc23)cc1 | inconclusive [activator, full curve]
C=CCSc1n[nH]c(-c2ccc(OCCCC)cc2)n1 | inconclusive [activator, single point]
CCc1ccc(NC(=O)CN2C(=O)CSc3ccc(S(=O)(=O)N(C)C)cc32)cc1 | inactive
OC(COCC1COc2ccccc2O1)CN1CCCCC1 (stereo unspecified) | inconclusive [activator, single point]
CNC(=S)N/N=C(\C)c1cccc(C(F)(F)F)c1 | inconclusive [activator, full curve, poor fit]
Cc1ccnc(NC(=O)C2CCN(S(=O)(=O)c3cccc4nonc34)CC2)c1 | inconclusive [activator, partial curve, poor fit]
CC(Oc1ccc(Cl)cc1Cl)c1ccnc2nc(N3CCOCC3)nn12 (stereo unspecified) | inconclusive [activator, partial curve, poor fit]
O=C(NCCc1csc2nc(-c3ccccc3F)nn12)C(=O)Nc1cc(F)ccc1F | inactive
CCn1c(=NC(=O)CSC(C)=O)sc2cc(OC)ccc21 | inconclusive [activator, full curve, poor fit]
C/C(CCc1ccccc1)=N\NC(=S)NCCc1ccccc1 | inconclusive [activator, single point]

SMILES | Potency
CCCOc1ccc(N2CC(C(=O)Nc3ccccn3)CC2=O)cc1 (stereo unspecified) | inconclusive [activator, partial curve, poor fit]
CC(C)Oc1cc(F)ccc1-c1cc(C(=O)Nc2cccc(C(F)(F)F)c2)[nH]n1 | inconclusive [activator, single point]
COc1ccc(N2CCC(CNC(=S)Nc3c(C)cccc3C)C2)cc1 (stereo unspecified) | inconclusive [activator, single point]
CCOc1ccc(-n2c(SCC(=O)Nc3ccc(CC)cc3)nc3c(oc4ccccc43)c2=O)cc1 | inactive
Cc1ccccc1NC(=S)N(C)Cc1cccs1 | inconclusive [activator, partial curve, poor fit]
c1csc(-c2nc(N3CCOCC3)c3ccccc3n2)c1 | inactive
Cn1c(CC(=O)NN)c(Sc2ccccc2)c2ccccc21 | inconclusive [activator, partial curve, poor fit]
O=C(Nc1cc(Cl)ccc1-n1cncn1)c1ccc(Br)o1 | inconclusive [activator, full curve]
S=C(NCc1ccco1)Nc1ccc(Oc2ccc(Cl)cc2)cc1 | inconclusive [activator, full curve, poor fit]
O=C(CC1SC(=Nc2cccc3ccccc23)N(Cc2ccccn2)C1=O)Nc1ccccc1Br (stereo unspecified) | inconclusive [activator, full curve]
CC(C)CNC(=S)NC(=O)c1ccc(Cl)cc1Cl | inconclusive [activator, single point]
CC(C)C(=O)OCC(=O)Nc1ccc(N=Nc2ccccc2)cc1 | inactive
COc1ccc(C(C)(O)c2nc(-c3ccc4ccccc4c3)cs2)cc1 (stereo unspecified) | inconclusive [activator, single point]
c1ccc(OCCN2CCN(C(c3ccccc3)c3ccccc3)CC2)cc1 | inconclusive [activator, partial curve, poor fit]
Cc1cc(C)c(S(=O)(=O)NCCn2ccc3ccccc32)c(C)c1 | inconclusive [activator, single point]
COc1ccc(Nc2nc(N)nc(CSc3n[nH]c(-c4ccccc4)n3)n2)cc1 | inconclusive [activator, single point]
CCc1ccccc1NC(=O)c1ccc(F)c(S(=O)(=O)N2CCN(c3ccccc3OC)CC2)c1 | active: 8.91 µM
Cc1ccc(OCCOCCN(C)C)c(Cl)c1 | inconclusive [activator, partial curve, poor fit]
O=C(O)c1cccc(NC(=S)N/N=C/c2ccccc2OCc2ccc(Br)cc2)c1 | inconclusive [activator, full curve, poor fit]
CCc1c(C)nc2c(-c3ccccc3)c(C)nn2c1Nc1ccc(NC(C)=O)cc1 | inconclusive [activator, single point]
O=C(c1c[nH]c(C(=O)C(Cl)(Cl)Cl)c1)c1ccc(F)cc1Cl | inactive
COc1ccc(CC(=O)NCC2(N3CCCCC3)CCCCC2)cc1 | inconclusive [activator, single point]
CC(C)c1ccc(NC(=S)NN2C(C)CCCC2C)cc1 (stereo unspecified) | inconclusive [activator, single point]
Cc1c(C(=O)OCC(=O)N(C)Cc2ccc(Cl)cc2)oc2ccccc12 | inactive

SMILES | Potency
CCCCc1ccc(NC(=O)C2CCCO2)cc1 (stereo unspecified) | inconclusive [activator, partial curve]
CCOC(=O)c1sc(NC(=O)c2ccc(S(=O)(=O)N(C)C)cc2)cc1C | inconclusive [activator, full curve, poor fit]
Cc1cc(-c2ccc(Cl)s2)n[nH]1 | inconclusive [activator, partial curve]
O=S(=O)(Nc1ccc(C(O)(C(F)(F)F)C(F)(F)F)cc1)c1ccc(Cl)c2nonc12 | inactive
COc1ccc(-c2cc(C(=O)NCCN3CCOCC3)c3ccccc3n2)c(OC)c1 | inactive
O=C(CCC1CCCCC1)Nc1nccs1 | inconclusive [activator, single point]
Cc1ccc(COC(=O)Cc2coc3cc(O)ccc23)cc1 | inconclusive [activator, single point]
O=C(/C=C/c1ccc(Br)cc1)NCc1cccs1 | inconclusive [activator, partial curve, poor fit]
CCC1CCc2sc(C(=O)O)cc2C1 (stereo unspecified) | inactive
CCCC(=O)n1nc(-c2ccco2)nc1SCc1ccccc1 | inactive
O=C(COc1ccc(Br)cc1)NCC1COc2ccccc2O1 (stereo unspecified) | inactive
CC1(C)c2[nH]c3ccccc3c2C[C@@H]2C(=O)N(Cc3ccccc3F)C(=O)N21 | inconclusive [activator, partial curve]
C/C(=N\Nc1cc(N2CCCCC2)nc(C)n1)c1ccc(Br)cc1 | inconclusive [activator, partial curve, poor fit]
Cc1ccc2sc(N3CCN(C(=O)C4COc5ccccc5O4)CC3)nc2c1C (stereo unspecified) | inconclusive [activator, single point]
CC(C)C(=O)OCC(=O)NCc1ccccc1Cl | inconclusive [activator, partial curve]
O=C(COC(=O)c1ccccc1NC(=O)c1ccco1)NCCC1=CCCCC1 | inconclusive [activator, partial curve, poor fit]
Cc1cccc(C)c1-n1c(C)cc(/C=N/NC(N)=S)c1C | inconclusive [activator, single point]
O=C(NCC(c1cccs1)N1CCOCC1)c1cn(-c2ccccc2)nc1-c1ccc(Cl)cc1 (stereo unspecified) | inconclusive [activator, single point]
CN1/C(=C\C(=O)CSc2cccc[n+]2[O-])C(C)(C)c2ccccc21 | inactive
O=C(COc1ccc([N+](=O)[O-])cc1)N(Cc1ccccc1)Cc1ccccc1 | inactive
COc1ccc(NC(=S)Nc2cccc(C(F)(F)F)c2)c(C)c1 | inconclusive [activator, single point]
Cc1cccnc1Nc1nc(-c2ccccc2)cs1 | inactive
COc1cccc2oc3cc(C#CC4(O)CCCCC4)ccc3c(=O)c12 | inactive
